# Test results: PubChem BioAssay AID2675 (National Center for Advancing Translational Sciences (NCATS), 2010)
# About 100 (0.036%) of roughly 280,000 compounds were called active. The inconclusive results got no clear call from the source; some entries with a clear call stand among them for comparison. The call rests on the fitted dose curve; in most records, active means well fitted inhibition curve with a large enough effect in the signal ratio, with a control signal flat (not every such curve was filed as active); inconclusive means small, poorly fitted or top-dose-only effect, or effect the other way, or a change in a side signal; inactive means no such curve, though single readings can be large or run the other way; the % refers to the signal ratio. Potencies of inconclusive entries are doubtful fits and often do not repeat. A note “side channel” means that the fit belongs to a control or component signal, not to the main read-out.
# Molecular target: Muscleblind-like protein 1 (Homo sapiens) (UniProt Q9NR56)
# Experiment: qHTS Assay for Inhibitors of MBNL1-poly(CUG) RNA binding
# Details: TR-FRET MBNL1-His/biotin-(CUG)12 binding, 665/545 ratio; activity change, negative = inhibition: at 57.5 µM (top of the series)
# Description: NIH Chemical Genomics Center [NCGC] NIH Molecular Libraries Probe Production Centers Network [MLPCN] MLPCN Grant: R03 MH087421-01 Assay Submitter (PI): Charles Thornton NCGC Assay Overview: Expanded CTG repeats in the 3' untranslated region of the DM protein kinase (DMPK) gene causes type I myotonic dystrophy (DM1). DM1 is a multi-systemic disease with a prevalence of 1/7000. Clinical features include myotonia, progressive muscle weakness and wasting, cardiac arrhythmia, insulin resistance, hypersomnolence, cataracts, and other symptoms. The pathogenic effect of expanded CTG repeats stems from deleterious effects of the mutant transcript. CUGexp mRNA accumulates in nuclear foci and sequesters proteins of the muscleblind family, of which MBNL1 is the most common family member in skeletal muscles. The binding interaction between MBNL1 and CUGexp tracts leads to deregulation of alternative splicing and is therefore a key molecular step in the pathogenesis of DM1. To target this binding interaction, we optimized a protein-RNA binding assay in 1536-well format for identification of small molecule inhibitors of biotinylated (CUG)12 and his-tagged MBNL1 binding. Protein-RNA complex of MBNL1-His and Biotin-(CUG)12 captures the detection reagents terbium-labeled anti-His antibody and streptavidin conjugated XL665. This brings the terbium label within close proximity to XL665 to allow time-resolved fluorescence resonance energy transfer (TR-FRET). Inhibitors of MBNL1-(CUG)12 binding will disrupt TR-FRET.
# NCGC Assay Protocol Summary: This is a TR-FRET binding assay with MBNL1-His and Biotin-(CUG)12 RNA. The assay uses a ratiometric measurement. In the presence of MBNL1-(CUG)12 complex, the excitation energy is transferred to the XL665 acceptor label, causing emission at 665nm, while the 545nm donor signal […]. Data were normalized to the controls for basal activity (buffer only) and 100% activity (with MBNL1-(CUG)12). […] The final titration was 92 nM to 58 uM. (3) Add 1 ul of terbium labeled anti-His antibody (0.055 ng/ul final concentration) (4) Add 1 ul of streptavidin-XL665 (5 nM final concentration) (5) Incubate 60 min at room temperature (6) Detect the assay plate in a EnVision plate reader (PerkinElmer) with Ex=340 nm, Em1=665 nm and Em2=545 nm. Keywords: mytonic dystrophy type I, DM1, muscleblind like 1, MBNL1, CUG expansion, protein-RNA binding inhibitor, high throughput screening, MLSMR, MLSCN, NIH Roadmap, qHTS and NCGC
# On the % scale 0 is the no-effect control and ±100 the full control effect; potency means the concentration at half of the fitted maximal effect; tags describe the fitted curve by direction and shape or compound fluorescence and quenching.
# UniProt Q9NR56, sequence (Q9NR56 whole entry, looked up): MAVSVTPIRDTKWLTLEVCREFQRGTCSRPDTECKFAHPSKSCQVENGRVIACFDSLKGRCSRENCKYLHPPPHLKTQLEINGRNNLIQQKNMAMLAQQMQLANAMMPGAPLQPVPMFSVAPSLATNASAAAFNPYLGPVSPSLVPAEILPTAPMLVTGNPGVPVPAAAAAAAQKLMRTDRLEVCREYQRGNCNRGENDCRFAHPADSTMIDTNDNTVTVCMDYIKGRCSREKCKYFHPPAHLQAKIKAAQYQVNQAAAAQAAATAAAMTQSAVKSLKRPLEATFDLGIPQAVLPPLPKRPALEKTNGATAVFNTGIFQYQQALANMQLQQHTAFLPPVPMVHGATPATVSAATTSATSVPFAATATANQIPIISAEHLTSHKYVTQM
Structure (SMILES),Potency,"activity change, negative = inhibition"
CC(C)(C)NC(=O)CN(Cc1cccs1)C(=O)CN1C(=O)C(=O)c2ccccc21,"inconclusive: 25.1 µM [quencher, side channel, single point]",
CC(C)NC(=O)CSc1nc(N)c(NC(=O)c2ccccc2F)c(=O)[nH]1,,inconclusive: -1.68% [phenotype inactive]
O=C(N/N=C/c1cccnc1)/C(=C\c1cccs1)NC(=O)c1ccccc1,"inconclusive: 39.8 µM [quencher, side channel, single point]",
Cc1ccc(C(=O)N/C(=C\c2ccc(-c3cccc([N+](=O)[O-])c3)o2)C(=O)NCCCN(C)C)cc1,"inconclusive: 25.1 µM [quencher, side channel, partial curve]",
O=C(O)c1ccccc1C(=O)c1ccc(N2CCCC2)c([N+](=O)[O-])c1,"inconclusive: 14.1 µM [quencher, side channel, partial curve]",
O=C(Nc1c(C(=O)Nc2cccc(F)c2)oc2ccccc12)c1ccc2c(c1)OCO2,"inconclusive: 8.91 µM [fluorescent, side channel, single point]",
CCSc1nc2sc3c(c2c(=O)[nH]1)CCc1ccccc1-3,inactive,
O=C(CCNc1ccc(Cc2ccncc2)cc1)c1ccc([N+](=O)[O-])cc1,"inconclusive: 8.91 µM [quencher, side channel, partial curve]",
O=C(NC1CC2CCCC(C1)N2Cc1ccccc1)c1ccc([N+](=O)[O-])cc1 (stereo unspecified),"inconclusive: 3.16 µM [quencher, side channel, full curve, poor fit]",
COC(=O)c1c(C)c2c(C)cc3ccccn3c-2c1C(=O)OC,"inconclusive: 15.8 µM [quencher, side channel, partial curve]",
COc1cc([N+](=O)[O-])ccc1NC(=O)CSc1nncn1-c1cccnc1,"inconclusive: 15.8 µM [quencher, side channel, partial curve]",
Cc1ccc(/C=C2\SC(=S)N(CCCC(=O)Nc3ccccc3C(=O)O)C2=O)cc1,inactive,
O=C(CN1CCN(c2ncccn2)CC1)N1CCCc2c1c(=O)oc1ccc(O)cc21,"inconclusive: 3.16 µM [quencher, side channel, full curve, poor fit]",
COCCCn1cnc2c(c1=O)c1nc3ccccc3nc1n2-c1ccccc1,"inconclusive: 2.82 µM [quencher, full curve]",
O=C(/C=C/c1cccc([N+](=O)[O-])c1)Nn1c(-c2ccccc2F)nc2ccccc2c1=O,"inconclusive: 39.8 µM [quencher, side channel, single point]",
Cc1cccc(-c2n[nH]c(=S)n2/N=C/c2ccco2)c1,inactive,
Clc1nnc(N/N=C/c2ccccc2)c2ccccc12,inactive,
O=S(=O)(c1ccccc1)N1CCC(Oc2ccc(-n3cnnn3)cc2)CC1,inactive,
COc1cc(NC(=O)c2ccc3nsnc3c2)cc(OC)c1OC,"inconclusive: 7.94 µM [quencher, partial curve]",
COc1ccc(-c2c(C#N)c(N)nc(Sc3ccc(Cl)cc3)c2C#N)cc1,"inconclusive: 3.98 µM [fluorescent, side channel, single point]",
CCC(CC)C(=O)NCc1ccc2c(c1)cc(C)n2C,inactive,

Structure (SMILES),Potency,"activity change, negative = inhibition"
Cc1nnc(NC(=O)C2c3ccccc3Oc3ccccc32)s1,inactive,
O=c1[nH]n(-c2ccc([N+](=O)[O-])cc2)c(=O)c2ccccc12,"inconclusive: 10 µM [quencher, side channel, partial curve, poor fit]",
C=CCOC(=O)/C(=C/c1ccco1)NC(=O)/C=C/c1ccccc1,"inconclusive: 25.1 µM [quencher, side channel, partial curve]",
CCOC(=O)C1=C(C)NC(=O)C1CC(=O)Nc1ccccc1 (stereo unspecified),"inconclusive: 2.24 µM [fluorescent, side channel, partial curve]",
CCOC(=O)c1ccc(Nc2ncnc3c2cnn3C)cc1,inactive,
CCCCn1nnc(NC(=O)c2ccc([N+](=O)[O-])cc2Cl)n1,"inconclusive: 12.6 µM [quencher, side channel, partial curve]",
Cc1ccc(/C=C2\Oc3cc(OCC(=O)NN)ccc3C2=O)o1,"inconclusive: 15.8 µM [quencher, side channel, partial curve]",
C=C1N(C)c2cc([N+](=O)[O-])c(N)cc2C1(C)C,"inconclusive: 14.1 µM [quencher, side channel, partial curve]",
Cc1ccc(C2=C(O)c3ccccc3C(=O)C2=O)cc1,"inconclusive: 15.8 µM [quencher, side channel, partial curve]",
Cc1ccc(/C=N/NC(=O)c2nnn(-c3nonc3N)c2-c2ccccc2)o1,"inconclusive: 14.1 µM [quencher, side channel, partial curve]",
Cn1cc(SCC(=O)NCCc2ccccc2)c2ccccc21,inactive,
NC(=O)c1c(NC(=O)c2ccncc2)sc2c1CCCC2,"inconclusive: 15.8 µM [quencher, side channel, partial curve]",
CC(=O)Nc1ccc(N/C=C2/CCCC2=O)cc1,"inconclusive: 22.4 µM [quencher, side channel, partial curve]",
CC(=O)Nc1ccc(S(=O)(=O)Nc2ccc(F)c([N+](=O)[O-])c2)cc1,"inconclusive: 28.2 µM [quencher, side channel, partial curve]",
N#Cc1ccc(C(=O)CSc2n[nH]c(=O)n2-c2cccnc2)cc1,"inconclusive: 8.91 µM [quencher, side channel, full curve, poor fit]",
Cc1cc(O)ccc1N1C(=O)c2cccc3cc([N+](=O)[O-])cc(c23)C1=O,"inconclusive: 0.631 µM [quencher, side channel, full curve, poor fit]",
COC(=O)CC1Oc2ccccc2N(Cc2ccc(C)cc2)C1=O (stereo unspecified),inactive,
O=C(/C=C/c1ccco1)OCC1CCCN2CCCCC12 (stereo unspecified),"inconclusive: 17.8 µM [quencher, side channel, partial curve]",
CCn1cc(C(=O)N[C@H](C(=O)NCCO)C(C)C)c(=O)c2cc3c(cc21)OCO3,inactive,
c1csc(-c2nnc(N3CCCCCC3)c3ccccc23)c1,inactive,
O=C(Cc1ccccc1)N/N=C/c1ccc([N+](=O)[O-])s1,"inconclusive: 14.1 µM [quencher, side channel, partial curve]",

Structure (SMILES),Potency,"activity change, negative = inhibition"
Cn1cccc1/C=C1\SC(=S)N(CC(=O)O)C1=O,"inconclusive: 10 µM [quencher, side channel, partial curve]",
O=C(Nc1cccnc1Cl)c1ccc(Cl)c([N+](=O)[O-])c1,"inconclusive: 3.98 µM [quencher, side channel, partial curve]",
CC(C)Cn1c(-c2csc3c2CCCC3)n[nH]c1=S,inactive,
O=C(O)/C=C\C(=O)Nc1cc(O)ccc1[N+](=O)[O-],"inconclusive: 25.1 µM [quencher, side channel, partial curve]",
COc1cc(-c2nc3ccccc3nc2-c2ccc(O)c(OC)c2)ccc1O,"inconclusive: 25.1 µM [quencher, side channel, partial curve]",
O=C(CSc1cccc[n+]1[O-])c1cc2ccccc2o1,"inconclusive: 10 µM [quencher, side channel, partial curve]",
COc1cc(CN2CCC(CO)(CCOc3ccccc3)CC2)cc(OC)c1OC,"inconclusive: 6.31 µM [inhibitor, single point]",
Cc1nn(C)c(C)c1N1C(=O)c2cccc3c(N)ccc(c23)C1=O,,inactive: 31.1% [at 11.5 µM]
CCOC(=O)/C(C#N)=C1/C=CN(c2ccc(C)cc2)C=N1,"inconclusive: 10 µM [quencher, side channel, partial curve]",
N#C/C(=C\c1cccs1)C(=O)NCc1ccco1,"inconclusive: 15.8 µM [quencher, side channel, partial curve]",
COc1ccc(-c2[nH]n(-c3ccc([N+](=O)[O-])cc3)c(=O)c2C=NCCN2CCNCC2)cc1,inactive,
O=C(CCCC(=O)N1CCN(c2ccc([N+](=O)[O-])cc2)CC1)c1ccccc1,"inconclusive: 28.2 µM [quencher, partial curve]",
COc1cc2c(cc1OC)C(COc1ccc([N+](=O)[O-])cc1)NCC2 (stereo unspecified),"inconclusive: 28.2 µM [quencher, partial curve]",
CCC1CCCCN1CCNC(=O)C1CCCN(S(=O)(=O)c2cccc3nsnc23)C1 (stereo unspecified),"inconclusive: 14.1 µM [quencher, side channel, partial curve]",
O=C(N/N=C/c1cccnc1)c1ccc2c(c1)OCCO2,"inconclusive: 15.8 µM [quencher, side channel, single point]",
O=C(Nc1cccc2ncccc12)c1ccccc1[N+](=O)[O-],"inconclusive: 8.91 µM [quencher, full curve, poor fit]",
O=C1c2ccccc2C(=O)C1c1nccc2ccccc12,"inconclusive: 1.41 µM [quencher, side channel, full curve, poor fit]",
CCOc1cc(/C=N/NC(=O)C(N)=O)cc(Br)c1O,"inconclusive: 22.4 µM [quencher, side channel, partial curve]",
COc1cc(/C=C2/C(=O)NN(c3ccc(F)cc3)C2=O)cc([N+](=O)[O-])c1O,"inconclusive: 12.6 µM [quencher, side channel, partial curve]",
